Data taken from the supplement of paper PMC8728848.
The list shows a part of the results.

Experiments:
Assay in all cases: glycan array binding signal (z-score within array); higher = stronger binding
Conditions in all cases: glycan notation: IUPAC condensed, linker removed
Gal3S6S(b1-4)GlcNAc = molecular target: Gal3S6S(b1-4)GlcNAc
Summary of the method: (§1)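 Glycan array binding is given as a within-array Z-score, which can be read as non-binding when negative. The arrays, 3228 of them, came from the Consortium for Functional Glycomics database and were retained only where the protein sequence was available. Z-scores were averaged across arrays of the same protein sequence at different concentrations or buffers and across linkers.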

Gal3S6S(b1-4)GlcNAc6S = molecular target: Gal3S6S(b1-4)GlcNAc6S
Summary of the method: as §1

Gal4S(b1-4)GlcNAc = molecular target: Gal4S(b1-4)GlcNAc
Summary of the method: as §1

Gal4S6S(b1-4)GlcNAc = molecular target: Gal4S6S(b1-4)GlcNAc
Summary of the method: as §1

Gal6P(b1-4)GlcNAc = molecular target: Gal6P(b1-4)GlcNAc
Summary of the method: as §1

Gal6S(b1-3)GlcNAc = molecular target: Gal6S(b1-3)GlcNAc
Summary of the method: as §1

Gal6S(b1-3)GlcNAc6S = molecular target: Gal6S(b1-3)GlcNAc6S
Summary of the method: as §1

Gal6S(b1-4)Glc = molecular target: Gal6S(b1-4)Glc
Summary of the method: as §1

Gal6S(b1-4)Glc6S = molecular target: Gal6S(b1-4)Glc6S
Summary of the method: as §1

Gal6S(b1-4)GlcNAc = molecular target: Gal6S(b1-4)GlcNAc
Summary of the method: as §1

Gal6S(b1-4)GlcNAc6S = molecular target: Gal6S(b1-4)GlcNAc6S
Summary of the method: as §1

GalNAc(a1-3)Gal = molecular target: GalNAc(a1-3)Gal
Summary of the method: as §1

GalNAc(a1-3)GalNAc = molecular target: GalNAc(a1-3)GalNAc
Summary of the method: as §1

[1] = molecular target: GalNAc(a1-3)GalNAc(b1-3)Gal(a1-4)Gal(b1-4)Glc
Summary of the method: as §1

[2] = molecular target: GalNAc(a1-3)GalNAc(b1-3)Gal(a1-4)Gal(b1-4)GlcNAc
Summary of the method: as §1

GalNAc(b1-3)Gal = molecular target: GalNAc(b1-3)Gal
Summary of the method: as §1

[3] = molecular target: GalNAc(b1-3)Gal(a1-4)Gal(b1-4)GlcNAc
Summary of the method: as §1

[4] = molecular target: GalNAc(b1-3)Gal(a1-4)Gal(b1-4)GlcNAc(b1-3)Gal(b1-4)Glc
Summary of the method: as §1

[5] = molecular target: GalNAc(b1-3)Gal(a1-6)Gal(b1-4)Glc
Summary of the method: as §1

GalNAc(b1-3)GalNAc = molecular target: GalNAc(b1-3)GalNAc
Summary of the method: as §1

GalNAc(b1-3)GlcNAc = molecular target: GalNAc(b1-3)GlcNAc
Summary of the method: as §1

GalNAc(b1-4)Gal(b1-4)Glc = molecular target: GalNAc(b1-4)Gal(b1-4)Glc
Summary of the method: as §1

GalNAc(b1-4)GlcNAc = molecular target: GalNAc(b1-4)GlcNAc
Summary of the method: as §1

[6] = molecular target: GalNAc(b1-4)GlcNAc(b1-2)Man
Summary of the method: as §1

[7] = molecular target: GalNAc(b1-4)GlcNAc(b1-2)Man(a1-3)[GalNAc(b1-4)GlcNAc(b1-2)Man(a1-6)]Man(b1-4)GlcNAc(b1-4)GlcNAc
Summary of the method: as §1

[8] = molecular target: GalNAc(b1-4)GlcNAc(b1-3)GalNAc(b1-4)GlcNAc
Summary of the method: as §1

GalNAc(b1-4)GlcNAc6S = molecular target: GalNAc(b1-4)GlcNAc6S
Summary of the method: as §1

GalNAc(b1-6)GalNAc = molecular target: GalNAc(b1-6)GalNAc
Summary of the method: as §1

GalNAc3S(b1-4)GlcNAc = molecular target: GalNAc3S(b1-4)GlcNAc
Summary of the method: as §1

GalNAc3S(b1-4)GlcNAc3S = molecular target: GalNAc3S(b1-4)GlcNAc3S
Summary of the method: as §1

[9] = molecular target: GalNAc3S(b1-4)[Fuc(a1-3)]GlcNAc
Summary of the method: as §1

GalNAc4S6S(b1-4)GlcNAc = molecular target: GalNAc4S6S(b1-4)GlcNAc
Summary of the method: as §1

GalNAc6S(b1-4)GlcNAc = molecular target: GalNAc6S(b1-4)GlcNAc
Summary of the method: as §1

Glc(a1-4)Glc = molecular target: Glc(a1-4)Glc
Summary of the method: as §1

[10] = molecular target: Glc(a1-4)Glc(a1-4)Glc(a1-4)Glc
Summary of the method: as §1

Glc(a1-6)Glc(a1-6)Glc = molecular target: Glc(a1-6)Glc(a1-6)Glc
Summary of the method: as §1

[11] = molecular target: Glc(a1-6)Glc(a1-6)Glc(a1-6)Glc
Summary of the method: as §1

Glc(b1-4)Glc = molecular target: Glc(b1-4)Glc
Summary of the method: as §1

B1: PX14375F-bfa-539-21-539 (Bacteroides fragilis) (protein)
chain: EDFLQKDPPSSPSQSVFWQKKSDFESALAGTYSVMYSGVFSQIMPCLDGLTDNAIVQHSEGTYGWAKTIAQGDLTPNQGGFVTDIYGNCYKGIARVHILMEQLDQYTGSDISADEKKFMLAQCKALRGYFYSWLYQCYKEVPVVTQSLDLNTMYQPKATRAEVLNRVMTDYDEAISELPDKLYSDSQTSGRFTVSAVKALKARILLFDAYDSNGKAISSKMEEVLTLLQSIKGYSLAARVRDNFISEKQLASPEIMFSVRFLRPNLTHSMDLYYGAWAVLDPTRNMVDAFECTDGKPWGESPLTVRPDESILYGNDDALKKAERAKMFMNRDRRLYESVNHSMMANFVDDGFKDEEVQVNESNNKGPTGFSALKYVQPTDVTPGYSTVSDADIVVLRYAHVLLMIAEAENEAHGATTTALNAINEVRTRSGQPAIEAGISQDDLRERIRNEWRIETCFEGLRYFQLKRWKLMDKRVNGVEDPAYPGYIKVYKPAFEFFPIPQSEIDKAGGVLKQDPAYE
glycan array binding signal (z-score) (Gal3S6S(b1-4)GlcNAc): 1
glycan array binding signal (z-score) (Gal3S6S(b1-4)GlcNAc6S): 0.32
glycan array binding signal (z-score) (Gal4S(b1-4)GlcNAc): -0.679
glycan array binding signal (z-score) (Gal4S6S(b1-4)GlcNAc): 0.029
glycan array binding signal (z-score) (Gal6P(b1-4)GlcNAc): -0.412
glycan array binding signal (z-score) (Gal6S(b1-3)GlcNAc): -0.321
glycan array binding signal (z-score) (Gal6S(b1-3)GlcNAc6S): -0.049
glycan array binding signal (z-score) (Gal6S(b1-4)Glc): -0.006
glycan array binding signal (z-score) (Gal6S(b1-4)Glc6S): -0.625
glycan array binding signal (z-score) (Gal6S(b1-4)GlcNAc): -0.094
glycan array binding signal (z-score) (Gal6S(b1-4)GlcNAc6S): -0.122
glycan array binding signal (z-score) (GalNAc(a1-3)Gal): -0.352
glycan array binding signal (z-score) (GalNAc(a1-3)GalNAc): -0.028
glycan array binding signal (z-score) [1]: -0.919
glycan array binding signal (z-score) [2]: -0.701
glycan array binding signal (z-score) (GalNAc(b1-3)Gal): -0.468
glycan array binding signal (z-score) [3]: 1.15
glycan array binding signal (z-score) [4]: -0.311
glycan array binding signal (z-score) [5]: -0.82
glycan array binding signal (z-score) (GalNAc(b1-3)GalNAc): -0.19
glycan array binding signal (z-score) (GalNAc(b1-3)GlcNAc): -0.293
glycan array binding signal (z-score) (GalNAc(b1-4)Gal(b1-4)Glc): 0.504
glycan array binding signal (z-score) (GalNAc(b1-4)GlcNAc): 0.714
glycan array binding signal (z-score) [6]: -0.578
glycan array binding signal (z-score) [7]: 0.735
glycan array binding signal (z-score) [8]: 0.233
glycan array binding signal (z-score) (GalNAc(b1-4)GlcNAc6S): -0.708
glycan array binding signal (z-score) (GalNAc(b1-6)GalNAc): 0.798
glycan array binding signal (z-score) (GalNAc3S(b1-4)GlcNAc): -0.767
glycan array binding signal (z-score) (GalNAc3S(b1-4)GlcNAc3S): 0.373
glycan array binding signal (z-score) [9]: -0.582
glycan array binding signal (z-score) (GalNAc4S6S(b1-4)GlcNAc): -0.372
glycan array binding signal (z-score) (GalNAc6S(b1-4)GlcNAc): -0.468
glycan array binding signal (z-score) (Glc(a1-4)Glc): -0.438
glycan array binding signal (z-score) [10]: 0.379
glycan array binding signal (z-score) (Glc(a1-6)Glc(a1-6)Glc): -0.35
glycan array binding signal (z-score) [11]: -0.24
glycan array binding signal (z-score) (Glc(b1-4)Glc): -0.514
